Results from the supplement of paper PMC10369915.
The list shows a part of the results. Cut-off read from the data, not from the text of the source: active = 3.2 or more and inactive = the rest. Only a few entries rise above the background.

B1: TP53_Y327_Q331H (peptide)
chain: PLDGEYFTLHI
B2: TSPAN7_Y124 (peptide)
chain: TFLRTYTDAMQ
B3: TRPC6_Y896_E897K (peptide)
chain: ISSLRYKLLEE
B4: TP63_Y171_D170E (peptide)
chain: PSNTEYPGPHS
B5: TPP1_Y459 (peptide)
chain: ALSDGYWVVSN
B6: TP53TG5_Y255_V257A (peptide)
chain: PMWHPYKADVT
B7: TRAPPC1_Y133 (peptide)
chain: SRLDSYVRSLP
B8: TRPM4_Y577_G582S (peptide)
chain: AQMAMYFWEMS
B9: TSC2_Y1650_N1651S (peptide)
chain: FVSIVYSDSGE
B10: TSPAN12_Y143_Y138C (peptide)
chain: CGLPRYRWLTH
B11: TSC2_Y1788_G1787S (peptide)
chain: EPTPSYEVGQR
B12: TSC1_Y304_G305W (peptide)
chain: DTQNSYWCATS
B13: TPM3_Y163_R168C (peptide)
chain: EADRKYEEVAC
B14: TPM3_Y163_R168H (peptide)
chain: EADRKYEEVAH
B15: TP63_Y171 (peptide)
chain: PSNTDYPGPHS
B16: TRIP6_Y275_Q278H (peptide)
chain: PPSGEYFGHCG
B17: TPR_Y965 (peptide)
chain: SNVEQYQAMVT
B18: TPI1_Y105 (peptide)
chain: AAQNCYKVTNG
B19: TSC1_Y406_L411I (peptide)
chain: CHSDDYVHISI
B20: TPO_Y55 (peptide)
chain: VDTAMYATMQR
B21: TSC1_Y406 (peptide)
chain: CHSDDYVHISL
B22: TP63_Y231_K233E (peptide)
chain: RAMPVYKEAEH
B23: TP53TG5_Y255 (peptide)
chain: PMWHPYKVDVT
B24: TSPAN12_Y143 (peptide)
chain: YGLPRYRWLTH
B25: TSC2_Y1650_Y1650C (peptide)
chain: FVSIVCNDSGE
B26: TRRAP_Y862_F860L (peptide)
chain: QPDLLYDHIQP
B27: TSC2_Y1650_S1653F (peptide)
chain: FVSIVYNDFGE
B28: TPO_Y55_A53P (peptide)
chain: VDTPMYATMQR
B29: TRIL_Y352 (peptide)
chain: ASPALYRLDLD
B30: TSPAN12_Y138_Y138C_YF (peptide)
chain: ARMTNCGLPRF
B31: TP53_Y327_Q331P (peptide)
chain: PLDGEYFTLPI
B32: TPM3_Y163_R168G (peptide)
chain: EADRKYEEVAG
B33: TSPAN12_Y143_YF (peptide)
chain: FGLPRYRWLTH
B34: TSC1_Y304 (peptide)
chain: DTQNSYGCATS
B35: TRIM39_Y439_G436R (peptide)
chain: WNRDKYAATTT
B36: TSC2_Y407_Y407D (peptide)
chain: GSQERDFELVE
B37: TRPC6_Y896_R895C (peptide)
chain: ISSLCYELLEE

Each binder was assayed against SHP2 C-SH2 domain E139D (assay: enrichment score (SH2-bound / input frequency) (ratio); bacterial display of known human phosphotyrosine sites (pTyr-Var adds point mutants) read by sequencing; higher = stronger binding; tyrosines were phosphorylated by kinases first). Settings: peptide library: pTyr-Var.
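Note: displayed peptides selected on beads carrying the immobilized SH2 domain, with library peptides lacking any tyrosine serving as negative controls.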

Row | Binder | enrichment score
1 | B1 | inactive: 0.917
2 | B2 | inactive: 0.727
3 | B3 | inactive: 1.01
4 | B4 | inactive: 0.291
5 | B5 | inactive: 0.758
6 | B6 | inactive: 1.28
7 | B7 | inactive: 0.836
8 | B8 | inactive: 2.86
9 | B9 | inactive: 1.92
10 | B10 | inactive: 0.42
11 | B11 | inactive: 0.564
12 | B12 | inactive: 0.612
13 | B13 | inactive: 0.454
14 | B14 | inactive: 0.534
15 | B15 | inactive: 0.53
16 | B16 | inactive: 0.728
17 | B17 | inactive: 0.579
18 | B18 | inactive: 0.62
19 | B19 | inactive: 0.839

Row | Binder | enrichment score
20 | B20 | inactive: 0.742
21 | B21 | inactive: 0.79
22 | B22 | inactive: 0.922
23 | B23 | inactive: 1.39
24 | B24 | inactive: 0.318
25 | B25 | inactive: 1.62
26 | B26 | inactive: 1.06
27 | B27 | active: 4.79
28 | B28 | inactive: 0.717
29 | B29 | inactive: 0.865
30 | B30 | inactive: 1.03
31 | B31 | inactive: 0.895
32 | B32 | inactive: 0.464
33 | B33 | inactive: 0.335
34 | B34 | inactive: 0.509
35 | B35 | inactive: 0.784
36 | B36 | inactive: 0.466
37 | B37 | inactive: 1.17

The binders below were run against SHP2 C-SH2 domain wild-type in the same assay as above. Settings: peptide library: pTyr-Var.

Row | Binder | enrichment score
38 | B1 | inactive: 1.09
39 | B2 | inactive: 0.938
40 | B3 | inactive: 0.931
41 | B4 | inactive: 0.633
42 | B5 | inactive: 0.979
43 | B6 | inactive: 0.981
44 | B7 | inactive: 0.677
45 | B8 | inactive: 2.93
46 | B9 | inactive: 1.62
47 | B10 | inactive: 0.426
48 | B11 | inactive: 0.381
49 | B12 | inactive: 0.666
50 | B13 | inactive: 0.587
51 | B14 | inactive: 0.443
52 | B15 | inactive: 0.486
53 | B16 | inactive: 0.881
54 | B17 | inactive: 0.577
55 | B18 | inactive: 0.675
56 | B19 | inactive: 0.99

Row | Binder | enrichment score
57 | B20 | inactive: 0.733
58 | B21 | inactive: 0.876
59 | B22 | inactive: 0.746
60 | B23 | inactive: 2.06
61 | B24 | inactive: 0.194
62 | B25 | inactive: 2.08
63 | B26 | inactive: 0.679
64 | B27 | active: 3.55
65 | B28 | inactive: 0.733
66 | B29 | inactive: 0.765
67 | B30 | inactive: 0.936
68 | B31 | inactive: 0.908
69 | B32 | inactive: 0.393
70 | B33 | inactive: 0.381
71 | B34 | inactive: 0.374
72 | B35 | inactive: 0.65
73 | B36 | inactive: 0.348
74 | B37 | inactive: 1.04

What follows are binders tested against SHP2 N-SH2 domain L43F in the same assay as above. Settings: peptide library: pTyr-Var.

Row | Binder | enrichment score
75 | B1 | inactive: 0.863
76 | B2 | active: 4.32
77 | B3 | inactive: 0.992
78 | B4 | inactive: 0.475
79 | B5 | inactive: 0.663
80 | B6 | inactive: 1.45
81 | B7 | inactive: 0.753
82 | B8 | inactive: 3.01
83 | B9 | inactive: 1.87
84 | B10 | inactive: 0.407
85 | B11 | inactive: 0.422
86 | B12 | inactive: 0.564
87 | B13 | inactive: 0.479
88 | B14 | inactive: 0.381
89 | B15 | inactive: 0.506
90 | B16 | inactive: 0.652
91 | B17 | inactive: 0.565
92 | B18 | inactive: 0.485
93 | B19 | inactive: 0.827

Row | Binder | enrichment score
94 | B20 | inactive: 0.652
95 | B21 | inactive: 0.841
96 | B22 | inactive: 0.653
97 | B23 | inactive: 2.23
98 | B24 | inactive: 0.322
99 | B25 | inactive: 1.39
100 | B26 | inactive: 0.653
101 | B27 | active: 3.77
102 | B28 | inactive: 0.732
103 | B29 | inactive: 0.903
104 | B30 | inactive: 0.988
105 | B31 | inactive: 0.825
106 | B32 | inactive: 0.258
107 | B33 | inactive: 0.224
108 | B34 | inactive: 0.535
109 | B35 | inactive: 0.722
110 | B36 | inactive: 0.465
111 | B37 | inactive: 1.08

Each binder was assayed against SHP2 N-SH2 domain T42A in the same assay as above. Settings: peptide library: pTyr-Var.

Row | Binder | enrichment score
112 | B1 | inactive: 0.725
113 | B2 | inactive: 0.915
114 | B3 | inactive: 0.92
115 | B4 | inactive: 0.632
116 | B5 | inactive: 0.666
117 | B6 | inactive: 1.02
118 | B7 | inactive: 0.681
119 | B8 | inactive: 2.31
120 | B9 | inactive: 1.56
121 | B10 | inactive: 0.313
122 | B11 | inactive: 0.503
123 | B12 | inactive: 0.587
124 | B13 | inactive: 1.07
125 | B14 | inactive: 0.74
126 | B15 | inactive: 0.597
127 | B16 | inactive: 0.684
128 | B17 | inactive: 0.575
129 | B18 | inactive: 0.478
130 | B19 | inactive: 0.709

Row | Binder | enrichment score
131 | B20 | inactive: 0.659
132 | B21 | inactive: 0.74
133 | B22 | inactive: 0.638
134 | B23 | inactive: 1.53
135 | B24 | inactive: 0.217
136 | B25 | inactive: 1.54
137 | B26 | inactive: 0.72
138 | B27 | active: 3.49
139 | B28 | inactive: 0.755
140 | B29 | inactive: 0.693
141 | B30 | inactive: 0.835
142 | B31 | inactive: 0.809
143 | B32 | inactive: 0.511
144 | B33 | inactive: 0.477
145 | B34 | inactive: 0.729
146 | B35 | inactive: 0.5
147 | B36 | inactive: 0.396
148 | B37 | inactive: 0.8

What follows are binders tested against SHP2 N-SH2 domain T52S in the same assay as above. Settings: peptide library: pTyr-Var.

Row | Binder | enrichment score
149 | B1 | inactive: 0.837
150 | B2 | active: 5.02
151 | B3 | inactive: 1.08
152 | B4 | inactive: 0.45
153 | B5 | inactive: 0.73
154 | B6 | inactive: 1.21
155 | B7 | inactive: 0.632
156 | B8 | inactive: 2.48
157 | B9 | inactive: 1.92
158 | B10 | inactive: 0.421
159 | B11 | inactive: 0.529
160 | B12 | inactive: 0.551
161 | B13 | inactive: 0.489
162 | B14 | inactive: 0.449
163 | B15 | inactive: 0.343
164 | B16 | inactive: 0.463
165 | B17 | inactive: 0.613
166 | B18 | inactive: 0.759
167 | B19 | inactive: 0.764

Row | Binder | enrichment score
168 | B20 | inactive: 0.701
169 | B21 | inactive: 0.764
170 | B22 | inactive: 0.896
171 | B23 | inactive: 1.95
172 | B24 | inactive: 0.25
173 | B25 | inactive: 1.45
174 | B26 | inactive: 0.695
175 | B27 | active: 4.56
176 | B28 | inactive: 0.564
177 | B29 | inactive: 0.878
178 | B30 | inactive: 0.944
179 | B31 | inactive: 0.725
180 | B32 | inactive: 0.425
181 | B33 | inactive: 0.36
182 | B34 | inactive: 0.545
183 | B35 | inactive: 0.547
184 | B36 | inactive: 0.369
185 | B37 | inactive: 1.02

Each binder was assayed against SHP2 N-SH2 domain wild-type in the same assay as above. Settings: peptide library: pTyr-Var.

Row | Binder | enrichment score
186 | B1 | inactive: 1.15
187 | B2 | inactive: 1.48
188 | B3 | inactive: 0.928
189 | B4 | inactive: 0.689
190 | B5 | inactive: 1.01
191 | B6 | inactive: 1.07
192 | B7 | inactive: 0.7
193 | B8 | inactive: 3.09
194 | B9 | inactive: 1.81
195 | B10 | inactive: 0.364
196 | B11 | inactive: 0.46
197 | B12 | inactive: 0.757
198 | B13 | inactive: 0.642
199 | B14 | inactive: 0.86
200 | B15 | inactive: 0.588
201 | B16 | inactive: 0.761
202 | B17 | inactive: 0.649
203 | B18 | inactive: 0.535
204 | B19 | inactive: 0.94

Row | Binder | enrichment score
205 | B20 | inactive: 0.803
206 | B21 | inactive: 0.859
207 | B22 | inactive: 1.08
208 | B23 | inactive: 1.74
209 | B24 | inactive: 0.288
210 | B25 | inactive: 2.23
211 | B26 | inactive: 1.16
212 | B27 | active: 3.83
213 | B28 | inactive: 0.728
214 | B29 | inactive: 0.789
215 | B30 | inactive: 0.999
216 | B31 | inactive: 0.956
217 | B32 | inactive: 0.391
218 | B33 | inactive: 0.389
219 | B34 | inactive: 0.379
220 | B35 | inactive: 0.649
221 | B36 | inactive: 0.445
222 | B37 | inactive: 1.71
